The whole screen tested about 50,000 compounds, of which about 800 (1.6%) showed an effect of 50% or more. The list shows a part of the results.
Biological target: Bcl-2-like protein 10 (Homo sapiens) (UniProt Q9HD36)
Test: TR3 peptide-Bcl-B binding displacers, biochemical primary FP assay, phenotype converters (AID 1240);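 further: 0% = Bcl-B with tracer peptide and DMSO and 100% = tracer peptide lacking Bcl-B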
Conditions: GST-Bcl-B / FITC-TR3 peptide fluorescence polarization; stronger effect = higher value; compound at 3.75 mg/L

Sequence of UniProt Q9HD36 (Q9HD36 whole entry, looked up): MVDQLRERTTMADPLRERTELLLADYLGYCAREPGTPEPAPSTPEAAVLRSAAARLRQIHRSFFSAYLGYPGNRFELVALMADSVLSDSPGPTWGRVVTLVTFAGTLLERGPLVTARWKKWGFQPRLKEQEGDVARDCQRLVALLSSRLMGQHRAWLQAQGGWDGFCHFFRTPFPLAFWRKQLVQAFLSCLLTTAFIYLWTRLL

Compound | displacement
Cc1ccccc1NC(=O)C(=O)NCCC1=CCCCC1 | -6.4%
COc1ccc(Cl)cc1C(=O)NCc1ccco1 | -1.3%
CCN(CC)c1ccc(C(=O)NCC(=O)OC)cc1 | 0.8%
CCCCCCOc1ccc(N2C(=O)CC(N3CCN(c4ccc(F)cc4)CC3)C2=O)cc1 (stereo not given) | -2.8%
Cc1cc(NC(=O)c2ccc(-c3cccc(Cl)c3)o2)ccc1NC(=O)c1ccco1 | 1.3%
COc1ccc(CCNC(=O)c2ccccc2)cc1OC | 2.5%
CC1=C(C(=O)OC2CCCCC2)C(c2ccc3c(c2)OCO3)C2=C(CCCC2=O)N1 (stereo not given) | -12.5%
CN(C)C1=C(C#N)C(C2CCCCC2=O)c2c(c3ccccc3n2C)N1c1ccc([N+](=O)[O-])cc1 (stereo not given) | 27.5%
CS(=O)(=O)c1ccc2nc(NC(=O)c3cc(-c4cccc(Br)c4)nc4ccccc34)sc2c1 | -3.4%
COc1ccc(Br)cc1/C=N/OC(=O)c1ccccc1 | 3%
CN1CCc2c(sc3[nH]c(=S)n(CCc4ccccc4)c(=O)c23)C1 | -5.1%
Nc1cccc(C(=O)Nc2ccccc2)c1 | 7%
COc1ccc(C(=O)Nc2cccc(-c3nc4ccccc4s3)c2C)cc1 | 0.9%
O=C(c1ccccc1F)N1CCN(c2ccc([N+](=O)[O-])cc2Cl)CC1 | 4.9%
COc1ccc(Cl)cc1C(=O)Nc1cc(C)on1 | 10%
Cc1ccc(C(O)C#CC(O)(c2ccccc2)c2ccccc2)o1 (stereo not given) | 5%
CN1CCN(C(=O)c2ccccc2Oc2ccccc2)CC1 | -6.3%
Cc1cc(=O)oc2c1c(C)nn2-c1cc(Cl)ccc1Cl | 3.2%
Cc1c(NC(=O)C23CC4CC(CC(C4)C2)C3)c(=O)n(-c2ccccc2)n1C | -12%
Cc1cccc(OCC(=O)Nc2ccc(Nc3ccccc3)cc2)c1 | -17.2%
C=CCn1c(Cc2ccccc2)n[nH]c1=S | -5.1%
COc1ccc2ccccc2c1C1C(C(C)=O)=C(C)N=c2s/c(=C\c3cccc(O)c3)c(=O)n21 (stereo not given) | -12.1%

Compound | displacement
CS(=O)(=O)N(CC(=O)NCCc1ccccc1)c1ccc(Br)cc1 | -9.6%
COc1ccc(N(CC(=O)Nc2ccc(C)cc2)S(C)(=O)=O)cc1 | 2.3%
CN(C)c1ccc(C(=O)NCc2ccccn2)cc1 | -13%
CCC(C)(C)C1CCc2c(sc(NC(=O)OC)c2C(N)=O)C1 (stereo not given) | -1.6%
CCOC(=O)/C(=C/c1cc2ccccc2n1C)[N+](=O)[O-] | -3.5%
O=C1NC(=O)N(c2ccccc2)C(=O)/C1=C\c1cccn1-c1ccc([N+](=O)[O-])cc1 | -25.5%
CCOC(=O)C(=O)Nc1ccc(NC(C)=O)cc1 | -4.5%
O=C1CC(NCc2ccc(Cl)cc2)C(=O)N1c1ccc(F)cc1 (stereo not given) | -4.2%
CCCCOc1ccc(NC(=O)CSCC(=O)OCC)cc1 | 2.4%
Cc1cc(C)n(-c2c(F)c(F)c(COC(=O)c3ccccc3)c(F)c2F)n1 | -1.8%
Cc1ccc(OCC(=O)NCc2ccc3c(c2)OCO3)c(Br)c1 | -7.2%
O=C1N=C(N2CCOCC2)S/C1=C\c1ccccc1 | 5.8%
CCOC(=O)c1ccc(N2NC(=O)/C(=C/c3ccccc3O)C2=O)cc1 | 16.7%
COc1ccc(C2CC(=O)C3=C(C2)Nc2ccccc2NC3c2ccc(OC)c(OC)c2)cc1 (stereo not given) | -10.2%
COc1ccccc1/C=N/NC(=O)CCc1c(C)n[nH]c1C | -12.8%
COc1ccc(C(N)=O)cc1NC(C)=O | -8.6%
O=C(CC(Nc1ccc(Br)cc1)c1ccc(F)cc1)c1ccccc1 (stereo not given) | 5.7%
O=C(O)c1ccccc1C(=O)NC1=NN(c2ccccc2)CC1 | 13%
O=C(NCC1c2ccccc2CCN1C(=O)c1cccs1)C1CCCCC1 (stereo not given) | -5.4%
Cc1c(OCC(N)=O)ccc2c3c(c(=O)oc12)CCC3 | 8.3%
CC(=O)Nc1ccc(C(=O)N2CC(C)CC(C)C2)cc1 (stereo not given) | 13.2%
Cc1cc(C)c(S(=O)(=O)NCC2CCCO2)c(C)c1 (stereo not given) | -8%

Compound | displacement
COc1ccccc1N(CC(=O)Nc1ccc(F)c(Cl)c1)S(=O)(=O)c1ccccc1 | -14.3%
Cc1ccc(-c2cc(C(=O)Nc3cccc(F)c3)c3ccccc3n2)o1 | 11.9%
Cc1ccc(N2C3=[N+](CCCCC3)CC2(O)c2cccc([N+](=O)[O-])c2)cc1 (stereo not given) | 12.2%
COc1cccc(/C=c2\sc3nc4ccccc4n3c2=O)c1OC | 19%
O=C(c1ccc(Cl)cc1)N1N=C(c2ccc([N+](=O)[O-])cc2)CC1(O)C(F)(F)F (stereo not given) | 4.5%
O=C(CN1C(=O)c2ccccc2C1=O)Nc1nc(-c2ccccc2)cs1 | -6.7%
O=S(=O)(N/N=C/C=C/c1ccccc1)c1ccc(Cl)cc1 | 1.6%
CCOC(=O)c1c(NC(=O)c2ccccc2C)sc(C(=O)Nc2ccccc2OC)c1C | -6.4%
CCOC(=O)C1=C(C)N(C)C(=O)NC1c1ccc(OC)c(OC)c1OC (stereo not given) | 5.1%
O=C(Nc1cccc(C(F)(F)F)c1)c1cc2c(ccc3ccccc32)oc1=O | -3%
Cc1cccc2sc(NC(=O)CCC(=O)O)nc12 | -14.8%
CC1=C(C(=O)Nc2ccc(Cl)cc2)C(c2cccc3ccccc23)NC(=O)N1 (stereo not given) | -5.7%
Cc1ccc(C(=O)N2CCN(c3ccccn3)CC2)cc1[N+](=O)[O-] | -11.5%
COc1ccc(C(=O)c2ccc(N3CCCCC3)c([N+](=O)[O-])c2)cc1 | -6.4%
O=C(Cc1ccccc1)N1N=CCC1(O)c1ccc(Cl)cc1 (stereo not given) | -13.4%
CCOc1ccc(N2C(=O)CC(N3CCC(C(N)=O)(N4CCCCC4)CC3)C2=O)cc1 (stereo not given) | -11.7%
C#CCOc1ccc(/C=C2\C(=O)NC(=O)N(c3ccc(C)cc3)C2=O)cc1OCC | 4.9%
CC1(C)c2ssc(=S)c2-c2ccccc2N1C(=O)COc1nc2ccccc2s1 | -6.4%
COC(=O)c1c(NC(=O)c2ccccc2F)sc2c1CCCCC2 | -4.8%
COc1ccc(CC(=O)Nc2ccc(NC(=O)c3ccc(Br)cc3)cc2)cc1OC | 12.9%
Cc1ccc(C(=O)N2c3c(C)cccc3C(Nc3ccccc3C)CC2C)cc1 (stereo not given) | -6.8%
CCn1c2ccccc2c2cc(CNCCc3cccc(F)c3)ccc21 | 8.5%

Compound | displacement
COC(=O)C1=C(C)N(Cc2ccccc2)C(=O)/C1=C\c1cccc([N+](=O)[O-])c1 | 2.4%
Cn1c2c(c(=O)[nH]c1=O)C(c1cccc(Cl)c1Cl)C1=C(N2)c2ccccc2C1=O (stereo not given) | 14.9%
Cc1ccc(S(=O)(=O)Nc2ccc(Br)cc2C(=O)c2ccccc2)cc1 | 14.5%
O=C(Nc1ccc(I)cc1)c1ccc(Cl)cc1Cl | 6.9%
Cc1ccc(S(=O)(=O)N/N=C/c2ccc(OS(=O)(=O)c3ccc([N+](=O)[O-])cc3)cc2)cc1 | 4.8%
Cc1cc(OCC(=O)Nc2cccc(Cl)c2C)ccc1Cl | 1.4%
O=C(Cc1ccc(F)cc1F)n1nnc2ccccc21 | -6%
Cc1ccc(NS(=O)(=O)c2ccc3c(c2)OCCO3)cc1 | 8.3%
CC(=O)Nc1ccc(C(=O)Nc2ncc([N+](=O)[O-])s2)cc1 | 18.6%
O=C(CCCN1C(=O)c2cccc3cccc(c23)C1=O)OC/C=C/c1ccccc1 | 6.6%
COc1ccccc1C(=O)NN1C(=O)/C(=C2/C(=O)N(CC(=O)O)c3ccccc32)SC1=S | 4.2%
O=C(/C=C(/O)c1ccccc1)C(=O)Nc1ccc(Br)cc1 | 9%
Cn1c(=S)n(CCC(=O)O)c2ccccc21 | -1.4%
Cc1c(NC(=S)Nc2ccc(Cl)cc2)c(=O)n(-c2ccccc2)n1C | -6%
O=C(Nc1cc(Cl)ccc1O)c1ccc([N+](=O)[O-])cc1 | -12.5%
COC(=O)C1=CN(Cc2ccc(C)cc2)C=C(C(=O)OC)C1c1ccc(F)c(F)c1 | 9.4%
CCC(C)c1ccccc1OCC(=O)Nc1cc(C(=O)O)cc(C(=O)O)c1 (stereo not given) | 12.6%
CCCCOC(=O)Cn1c(=N)n(CCN(CC)CC)c2ccccc21 | -12.3%
CC(=O)Oc1ccc(-c2cccc(C(=O)NCCO)c2)cc1 | 9.9%
Cc1cc(/C=N/NC(=O)CC#N)c(C)n1-c1cc(Cl)cc(Cl)c1 | -17.8%
Cc1cc(Br)ccc1S(=O)(=O)n1nnc2ccccc21 | 3.9%
Cc1cc(C=O)c(C)n1-c1ccc(Br)c2ccccc12 | 20.5%

Compound | displacement
O=C1C=CC(=O)C(c2cccc(C(F)(F)F)c2)=C1 | 14.9%
CC(NC(=O)c1ccccc1Cl)C(=O)O (stereo not given) | 8.1%
C(=NN1CCN(Cc2ccccc2)CC1)c1ccccc1 | 11.1%
O=C1CC(NCCc2ccccc2)C(=O)N1CCc1ccccc1 (stereo not given) | 5.1%
O=C(O)CCCN1C(=O)/C(=C/c2ccc3c(c2)OCO3)SC1=S | 6.1%
COc1ccc(Cl)cc1C(=O)Nc1sc(C)c(C)c1C#N | 11%
Cc1ccc2c(Cl)c(C(=O)Nc3nc4ccc(Br)cc4s3)sc2c1 | 19.9%
COc1ccc(OC)c(N=Cc2c(O)n(-c3ccccc3C)c(=O)[nH]c2=O)c1 | 7.3%
CCCCOC(=O)c1ccc(NC(=O)c2cc(I)ccc2Cl)cc1 | 10.6%
CN(C)c1ccc(/C=N/N=C2/NC(=O)C(Cc3ccc(Cl)cc3Cl)S2)cc1 (stereo not given) | 1.8%
NC(=O)c1ccccc1NC(=O)c1cc(Cl)ccc1Cl | -2.9%
COc1ccccc1C(=O)Nc1cc(-c2nc3cc(Cl)ccc3o2)ccc1C | 24.1%
CC(=O)Nc1ccc(S(=O)(=O)NCCc2ccc(S(N)(=O)=O)cc2)cc1 | 18.6%
N#CSC(C#N)Cc1ccc([N+](=O)[O-])cc1 (stereo not given) | 3%
COC(=O)c1ccccc1NC(=O)c1c(Cl)cccc1Cl | 11.4%
COc1cccc(/C=C2\SC(=S)N(c3cccc(C)c3)C2=O)c1 | 14.9%
Cc1ccccc1NC(=O)c1c(NC(=O)c2ccc([N+](=O)[O-])cc2)sc2c1CCC2 | 23.3%
N#CC(C#N)=Cc1ccc(-c2ccc(S(N)(=O)=O)cc2)o1 | -0.4%
CCN(CC)C(=O)c1c(-c2ccccc2)noc1C | -4.1%
Cc1ccc(/C(O)=C2\C(=O)C(=O)N(c3nccs3)C2c2cccs2)cc1 (stereo not given) | 17.3%
CC1=C(C(=O)Nc2ccc(Cl)cc2)C(c2ccccc2F)NC(=S)N1 (stereo not given) | -11.6%
O=C(COc1ccccc1)N1N=C(c2ccccc2)CC1(O)C(F)(F)F (stereo not given) | -10.8%
